# Measurements from the supplement of paper PMC10037445.
# ± gives the standard deviation of the averaged measurements. The full ranking holds about 2,900 compounds; the median of “IRF Lucia reporter activity, fold change vs agonist alone” is about 0.9, and the highest 2% start at about 2.8. The list shows a part of the results.
# Experiments:
# RAW-Dual [1] = assay: IRF Lucia reporter activity, fold change vs agonist alone; cytotoxicity flag (confluency mask): not cytotoxic; higher = enhanced IRF activity
# Outline: (§1)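 Reporter activity is given as fold change relative to agonist-alone wells. To measure it, 50 nL of library stock was pin-tooled onto RAW-Dual macrophages (50,000 cells/well, DMEM, 384-well plates), a PRR agonist followed 1 h later, and cells stayed at 37 °C, 5% CO2. Twenty hours on, supernatant was assayed for IRF (QuantiLuc luminescence) and NF-κB (QuantiBlue, 620 nm absorbance), and wells under 70% of agonist-control IncuCyte confluency in both mask sets were marked cytotoxic.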
# RAW-Dual [2] = assay: IRF Lucia reporter activity, fold change vs agonist alone; higher = enhanced IRF activity; conditions: agonist: MPLA (TLR4) […]
# Outline: as §1
# RAW-Dual [3] = assay: IRF Lucia reporter activity, fold change vs agonist alone; cytotoxicity flag (confluency mask): cytotoxic (confluency <70% of control); higher = enhanced IRF activity
# Outline: as §1
# [4] = agonist: 3'3'-cGAMP (STING) 10 ug/mL
# [5] = library stock concentration (final ~1000-fold dilution): 10 mM, cytotoxicity flag (confluency mask): not cytotoxic
# [6] = library stock concentration (final ~1000-fold dilution): 10 mM, cytotoxicity flag (confluency mask): cytotoxic (confluency <70% of control)
smiles,measurement,setting,value
CN(C(=O)CNC(=O)/C=C/c1cccc(Cl)c1)C1CCS(=O)(=O)CC1 (library stock concentration (final ~1000-fold dilution): 10 mM),IRF Lucia reporter activity,RAW-Dual [1]; [4],0.668
same,IRF Lucia reporter activity,RAW-Dual [1]; agonist: LPS (TLR4) 0.1 ug/mL,0.91
COc1cc2c(cc1OC)CN(C(=O)/C=C/c1c(-c3ccccc3)n(C)c3ncccc13)CC2.Cl (library stock concentration (final ~1000-fold dilution): 10 mM),IRF Lucia reporter activity,RAW-Dual [1]; [4],0.886
same,IRF Lucia reporter activity,RAW-Dual [1]; agonist: LPS (TLR4) 0.1 ug/mL,1.07
CC(C)Cc1ccc(C(C)C(=O)O)cc1.NCCCCC(N)C(=O)O (centres undefined) (library stock concentration (final ~1000-fold dilution): 10 mM water),IRF Lucia reporter activity,RAW-Dual [1]; [4],1.29
same,IRF Lucia reporter activity,RAW-Dual [1]; agonist: LPS (TLR4) 0.1 ug/mL,0.813
CC(C)Cc1ccc(C(C)C(=O)O)cc1.NCCCCC(N)C(=O)O (centres undefined),IRF Lucia reporter activity,"RAW-Dual [2]; library stock concentration (final ~1000-fold dilution): 10 mM water, cytotoxicity flag (confluency mask): not cytotoxic",1.33
CC1(C)OCCn2c1nc1c(N3CCOCC3)nc(-c3cnc(N)nc3)nc12 (library stock concentration (final ~1000-fold dilution): 10 mM),IRF Lucia reporter activity,RAW-Dual [1]; [4],0.579
same,IRF Lucia reporter activity,RAW-Dual [1]; agonist: LPS (TLR4) 0.1 ug/mL,0.925
COC1=CC(c2cc3ccccc3[nH]2)=N/C1=C\c1[nH]c(C)cc1C.CS(=O)(=O)O (library stock concentration (final ~1000-fold dilution): 10 mM),IRF Lucia reporter activity,RAW-Dual [1]; [4],0.38
same,IRF Lucia reporter activity,RAW-Dual [1]; agonist: LPS (TLR4) 0.1 ug/mL,3.87
COC1=CC(c2cc3ccccc3[nH]2)=N/C1=C\c1[nH]c(C)cc1C.CS(=O)(=O)O,IRF Lucia reporter activity,RAW-Dual [2]; [5],5.45
CS(=O)(=O)O.O=C(OC1CC2CC3CC(C1)N2CC3=O)c1c[nH]c2ccccc12 (centres undefined),IRF Lucia reporter activity,RAW-Dual [2]; [5],1.03
CS(=O)(=O)O.O=C(OC1CC2CC3CC(C1)N2CC3=O)c1c[nH]c2ccccc12 (centres undefined) (library stock concentration (final ~1000-fold dilution): 10 mM),IRF Lucia reporter activity,RAW-Dual [1]; [4],1.02
same,IRF Lucia reporter activity,RAW-Dual [1]; agonist: LPS (TLR4) 0.1 ug/mL,0.975
OC1(c2ccc(Cl)c(C(F)(F)F)c2)CCN(CCCC(c2ccc(F)cc2)c2ccc(F)cc2)CC1 (library stock concentration (final ~1000-fold dilution): 10 mM),IRF Lucia reporter activity,RAW-Dual [3]; [4],0.0211
same,IRF Lucia reporter activity,RAW-Dual [3]; agonist: LPS (TLR4) 0.1 ug/mL,0.0256
OC1(c2ccc(Cl)c(C(F)(F)F)c2)CCN(CCCC(c2ccc(F)cc2)c2ccc(F)cc2)CC1,IRF Lucia reporter activity,RAW-Dual [2]; [6],0.0399
O=C(Cc1ccccc1)Nc1nnc(NC2CCN(c3nnc(NC(=O)Cc4ccccc4)s3)CC2)s1 (library stock concentration (final ~1000-fold dilution): 10 mM),IRF Lucia reporter activity,RAW-Dual [1]; [4],0.884
same,IRF Lucia reporter activity,RAW-Dual [1]; agonist: LPS (TLR4) 0.1 ug/mL,1.04
COc1cc(O)cc(O)c1C(=O)/C=C/c1ccccc1 (library stock concentration (final ~1000-fold dilution): 10 mM),IRF Lucia reporter activity,RAW-Dual [3]; [4],0.0503 ± 0.025
same,IRF Lucia reporter activity,RAW-Dual [3]; agonist: LPS (TLR4) 0.1 ug/mL,0.256 ± 0.099
COc1cc(O)cc(O)c1C(=O)/C=C/c1ccccc1,IRF Lucia reporter activity,RAW-Dual [2]; [6],0.675 ± 0.41
Cc1cnc(NC(=O)C2=C(O)c3ccccc3S(=O)(=O)N2C)s1,IRF Lucia reporter activity,RAW-Dual [2]; [5],0.731
Cc1cnc(NC(=O)C2=C(O)c3ccccc3S(=O)(=O)N2C)s1 (library stock concentration (final ~1000-fold dilution): 10 mM),IRF Lucia reporter activity,RAW-Dual [1]; [4],0.955
same,IRF Lucia reporter activity,RAW-Dual [1]; agonist: LPS (TLR4) 0.1 ug/mL,1.03
CNCCC(Oc1cccc2ccccc12)c1cccs1 (centres undefined) (library stock concentration (final ~1000-fold dilution): 10 mM),IRF Lucia reporter activity,RAW-Dual [3]; [4],0.631
same,IRF Lucia reporter activity,RAW-Dual [3]; agonist: LPS (TLR4) 0.1 ug/mL,0.398
CNCCC(Oc1cccc2ccccc12)c1cccs1 (centres undefined),IRF Lucia reporter activity,RAW-Dual [2]; [6],0.811
O=C(O)CCCc1ccccc1 (library stock concentration (final ~1000-fold dilution): 10 mM),IRF Lucia reporter activity,RAW-Dual [1]; [4],1.07
same,IRF Lucia reporter activity,RAW-Dual [1]; agonist: LPS (TLR4) 0.1 ug/mL,1.25
O=C(O)CCCc1ccccc1,IRF Lucia reporter activity,RAW-Dual [2]; [5],1.1
Cn1cc(-c2ccc(F)c(C(F)(F)F)c2)nc1C1CCN(c2ncnc3[nH]ncc23)CC1 (library stock concentration (final ~1000-fold dilution): 2 mM),IRF Lucia reporter activity,RAW-Dual [1]; [4],0.971
same,IRF Lucia reporter activity,RAW-Dual [1]; agonist: LPS (TLR4) 0.1 ug/mL,0.96
CNCCN1CCC(OCc2ccccc2)CC1.Cl.Cl (library stock concentration (final ~1000-fold dilution): 10 mM),IRF Lucia reporter activity,RAW-Dual [1]; [4],0.445
same,IRF Lucia reporter activity,RAW-Dual [1]; agonist: LPS (TLR4) 0.1 ug/mL,1
CC(C)(Cc1ccc2ccccc2c1)NCC(O)COc1cccc(Cl)c1C#N (centres undefined) (library stock concentration (final ~1000-fold dilution): 10 mM),IRF Lucia reporter activity,RAW-Dual [1]; [4],1.1
same,IRF Lucia reporter activity,RAW-Dual [1]; agonist: LPS (TLR4) 0.1 ug/mL,0.0451
CC(C)(Cc1ccc2ccccc2c1)NCC(O)COc1cccc(Cl)c1C#N (centres undefined),IRF Lucia reporter activity,RAW-Dual [2]; [5],1.06
O=C(c1cccc(Cl)c1F)N1CCN(Cc2cccc(Nc3nccs3)n2)CC1 (library stock concentration (final ~1000-fold dilution): 10 mM),IRF Lucia reporter activity,RAW-Dual [1]; [4],0.249
same,IRF Lucia reporter activity,RAW-Dual [1]; agonist: LPS (TLR4) 0.1 ug/mL,0.813
O=C(c1cccc(Cl)c1F)N1CCN(Cc2cccc(Nc3nccs3)n2)CC1,IRF Lucia reporter activity,RAW-Dual [2]; [5],0.973
Oc1cc(O)c2c(c1)OC(c1ccc(O)c(O)c1)C(O)C2c1c(O)cc(O)c2c1OC(c1ccc(O)c(O)c1)C(O)C2 (centres undefined) (library stock concentration (final ~1000-fold dilution): 1 mM),IRF Lucia reporter activity,RAW-Dual [1]; [4],0.789
same,IRF Lucia reporter activity,RAW-Dual [1]; agonist: LPS (TLR4) 0.1 ug/mL,0.717
